Source: the supplement of paper PMC11417369
Some of the results follow.

test system: PfSIP2 AP2 domain 1 (GST-tagged); test: gcPBM binding intensity (ln(normalized median fluorescence intensity)); higher = stronger DNA binding
In short: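 After 1 h on an Agilent 4 × 180k array of primer-extended double-stranded 36-bp intergenic genomic probes and negative controls, bound GST-tagged P. falciparum DNA-binding domains were detected with Alexa488 anti-GST antibody and scanned at 488 nm. The domains had been expressed in E. coli, and binding took place in 1× PBS with 1% milk, 0.2 mg/ml BSA, 0.5% salmon testes DNA and 0.03% Triton X-100. Binding intensity is the highest Masliner-normalised natural-log median intensity across replicate spots of either probe orientation.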

| Sequence | gcPBM binding intensity (ln) |
| --- | --- |
| ATATGCAAAGAGTATAATCAAAATGTAAATAAATAA [GTGCAC_negctrl_site141] | 6.8 |
| AATATTATTTATATTTGTACACAGTAATATAAAATA [XGTACX_site4884] | 6.95 |
| CCATAGATATTTTATACACACATATAATATATTAAG [CACACA_site4363] | 6.99 |
| CCACATTAAAAAAAAACACACATATATTATATATAT [CACACA_site1155] | 7.73 |
| AATACATGAATATGTAGTACAGAAAAAAAAAATATA [XGTACX_site1945] | 7 |
| AAAATGACATAATGGGGAATAGACATATACATAAAT [CACACA_negctrl_site1669] | 6.71 |
| GTTACAGAGAATGTTGTGCACATATCAATAATATAT [GTGCAC_site9671] | 9.27 |
| TATATATATATATATATTTTAAATGATATAAATGGT [TGCATGCA_negctrl_site152] | 9.66 |
| AATTAATTAAATTAATGTACACATATATTTGTATTC [XGTACX_site2341] | 7.14 |
| AAATGGTAAGAAAATAAATAAAGTTCTACCACATAA [CACACA_negctrl_site1542] | 6.77 |
| TAGAAAGAATATAATTGTACAAATGTTGATAGATAA [XGTACX_site7259] | 7.22 |
| ATATATATATATATATATATATATGTTTGATTTTTT [XGTACX_negctrl_site98] | 9.71 |
| ATTTTTCTTTTATTAACACACATATAAATAAATACA [CACACA_site2876] | 7.33 |
| TATAAACCATAATTAACACACAAAATAAGTTACATA [CACACA_site3227] | 6.87 |
| ATAATAATAAAAATTATACATAAGTATATGCACATA [XGTACX_negctrl_site583] | 8.3 |
| TTTTGCTTTTTTTTTCTTTTTTGTTTTATATATATT [CACACA_negctrl_site103] | 6.87 |
| ACATATGGTATTTAAACACACAAAAAAGAAAGAAAA [CACACA_site991] | 6.91 |
| TTGACATATAAGATATGTACTAATACACACACATAT [XGTACX_site1904] | 6.99 |
| AAATAATAAAACAACACACAAATAGTTAAAATAGAA [CACACA_site5007] | 7.03 |
| ACATTCTATATATACACACATACATAATAAAGAAAG [CACACA_site2771] | 7.27 |
| TTTTAATGATATATGAGTACACATTGTTTTTTATAA [XGTACX_site1072] | 7.21 |
| ATATAATGATGGAAAAGAAAAGAAATAAAAAAAAAA [CACACA_negctrl_site1170] | 6.66 |

| Sequence | gcPBM binding intensity (ln) |
| --- | --- |
| AATAAAAAAAAACTCATGCACACAATATTATGAAAA [CACACA_site664] | 7.06 |
| CATATATAGATATATACACACATACATACATACATA [CACACA_site7748] | 7.12 |
| TGCATATGCATTATTTGTACATATGTAGATAATTAT [XGTACX_site6930] | 7.08 |
| AAAAATTACAAATACAAACACACAAATGTTTTTCAT [CACACA_site3551] | 6.87 |
| AATAAAATAAATATATGTACATATATATAACCATTA [XGTACX_site5549] | 7 |
| TTTTTTTTTTTGAAATGTACATTCCAAAAACTGATA [XGTACX_site1495] | 6.99 |
| TATATATATATATATTTTTTTTTTTTATGCACATGG [CACACA_negctrl_site1573] | 9.18 |
| CTTTTGAACAGTTCATGTACTCAATTTTTTAATAGT [XGTACX_site6498] | 7.14 |
| TAATACCTATGGTATAGTACGTATTATTTTATAGAG [XGTACX_site2078] | 6.82 |
| TATTTTTATTGGTACTGTACCTATTTAGAAATACAT [XGTACX_site6663] | 6.96 |
| ATGATTTCATTTGAGAGTACGTAAAAATAATACGTA [XGTACX_site4958] | 6.93 |
| TATTTATAAAAAAATACATGCATTTTTTTTTTTTTT [TGCATGCA_site65] | 7.13 |
| TGTTAATTCTTAAGAATTTCCATAATTTCTTCTTTT [CACACA_negctrl_site1065] | 6.75 |
| TTTGCCATATGACACACACACATGTAAACCCCCTTT [CACACA_site6873] | 7.48 |
| TAATACAAAAACAATGTTCTTTCAAACATAAACATA [CACACA_negctrl_site1628] | 6.78 |
| TTATATTCTAGAGACACATGCGATTTTTTATTTTAT [TGCATGCA_site649] | 6.83 |
| TGGAATAATCCGCGTACACACATATATATATTAAGA [CACACA_site4253] | 7.51 |
| AATAAAAATAGGAATACGCACACGATGATTAATTTA [CACACA_site1836] | 6.78 |
| AATTAACCCTAATTTTGTACATATTCCTTTTCTCAT [XGTACX_site46] | 6.82 |
| GTTACTATGATTAATGCATGCAAATACCAAAAAAAA [TGCATGCA_site590] | 7.54 |
| TATACCACACGATATACACACTTGTAGACATCTTTT [CACACA_site6232] | 6.94 |
| TAATACGAATGAGGCACACACCTAGTATACATGCTT [CACACA_site6438] | 6.65 |

| Sequence | gcPBM binding intensity (ln) |
| --- | --- |
| TCCCTTCATCTTTTATGTACTAAAAAATTGAATAAT [XGTACX_site2172] | 7.37 |
| AATTAAAATTTTTGAAGTACACTCAAAATAAGTTAT [XGTACX_site4490] | 6.97 |
| AAAATAAAAAAAAACACACACATACAAGCATATATA [CACACA_site1585] | 6.89 |
| AAAAAAAAATTTAAGGGTACATACAAATATATATAT [XGTACX_site5078] | 8.33 |
| CATATATAAAAAAACACACACATATTTATATTTATA [CACACA_site6682] | 6.93 |
| CATATTTCTTACATTTGTACTTAATAAAATTAATCA [XGTACX_site7224] | 7.21 |
| AAAAAAATTTATAAATATTTTATTAATATATTTACC [GTGCAC_negctrl_site690] | 7.14 |
| ACACAAAACAAAAAGGTGCTGTATAAATGGGTGTAT [GTGCAC_site9905] | 7.91 |
| TTTTTATACAACTTATAATACATCTGAAAATATAAA [XGTACX_negctrl_site36] | 6.84 |
| TTGTCTGACTAATTTTTTTCTGTTTGTACGTTCTTA [GTGCAC_negctrl_site602] | 6.81 |
| TATCACATATTATGATGTACAAGGTTTCTGACTAAT [XGTACX_site2763] | 6.96 |
| ACAAAATAAATATGAACACACACATTTATGCCTTTA [CACACA_site8346] | 6.82 |
| ATAATTATACATATTACACACTCTCTTGATCTTTTT [CACACA_site3853] | 7.13 |
| AATTAAATATTATAAACACACATATAGATTATTTTT [CACACA_site6538] | 6.88 |
| ATTTTAAATATGGAATGTACTTAAAAAAAATTTCAT [XGTACX_site5058] | 6.92 |
| ATTTCTTATTAAATTACACACAAAGTAAATAAATCT [CACACA_site3924] | 6.84 |
| TTTTCCTTTTTTTTTACATGCAGATATAGAAAGGTA [TGCATGCA_site106] | 7.08 |
| TTGTTTTGGATTATCACACATATAATATATACTCAT [CACACA_site4780] | 7.15 |
| AAATACATAACTTAAAATTTGTTCATATCTATACAT [TGCATGCA_negctrl_site249] | 6.94 |
| TATAATAATATGGATTGTACATATATATTTAATTAA [XGTACX_site4327] | 6.98 |
| GTAATTTTTTTCTATACACACATATCTATAATATAT [CACACA_site7284] | 7.08 |
| TACTTATAATTTCAATGTACATATATATAATATCAT [XGTACX_site2424] | 7.15 |

| Sequence | gcPBM binding intensity (ln) |
| --- | --- |
| AACACCCATGGACACACACACATATATATATATATA [CACACA_site5809] | 9.43 |
| TTTTTATAAGCATAAAGTACAAATATTTTTTAGTTG [XGTACX_site4140] | 7.19 |
| TAAATCCGTTTGATGGGTACATACATACATACATAT [XGTACX_site8889] | 7.01 |
| ACAATAAAATATGGCACACATATATATATATATTTA [CACACA_site3] | 7.21 |
| ATTTATTTTAGTAAAGCACACGTGTAAAATATATCT [CACACA_site4820] | 6.99 |
| TCTTTTTTGAACTAGCGTACATGAAAATATTTATAG [XGTACX_site7359] | 7.24 |
| TTATTACATATAAAGGAAAATAGCATCTAGATTAAA [XGTACX_negctrl_site435] | 6.71 |
| TTTTTATTTATATATAAGGAAAATGCGGTATATATT [CACACA_negctrl_site1770] | 7.38 |
| AAAAAAAAAAAAAAAAAATACATATACATTTGTGCA [CACACA_negctrl_site1431] | 7.9 |
| TATATGTATTTATATACACACATATTCTTTTTACAC [CACACA_site8320] | 7.12 |
| TCCTTTTCATCTTGTAGTACGGAAATGTAGCTCCAA [XGTACX_site8563] | 6.98 |
| AATATTTTGAACAACAGTACTCTTTCTTTCTTTCTT [XGTACX_site7212] | 6.55 |
| TATATCTACTTAAAAAGTACGTAAATTATAAGCTAT [XGTACX_site6420] | 6.9 |
| TGTGTAAATATGTATACACACATATCTGATCAATAT [CACACA_site7507] | 6.82 |
| TATGTATAACTCAATGCATGCGAAGGACTATTATTT [TGCATGCA_site222] | 6.85 |
| AATATTGTTCACAAGGTGCTTTTTATTCATACTAAT | 7.62 |
| ACCTCACAAATGAATACACACAAACATATAGATTTA [CACACA_site6862] | 7.19 |
| ATATATAAAATTATATGTACATATATCTATTTATAA [XGTACX_site3713] | 6.93 |
| GATTAAAACTTTAACTGTACATAATAATTATCAATC [XGTACX_site5938] | 7.13 |
| TTTAAAATTTCTTAATGTACGTAATAAAAAAAAAAA [XGTACX_site4037] | 7.08 |
| AAAATTTAAAAATGGACACACACAAAAAATAATACT [CACACA_site7972] | 7.32 |
